Here are results for four substances from PMC5011643.

Sequences of proteins named here, by UniProt entry; tags and fusion partners are left off. A change or cut given only in a name is not applied to a line headed by its entry.
UniProt Q15797: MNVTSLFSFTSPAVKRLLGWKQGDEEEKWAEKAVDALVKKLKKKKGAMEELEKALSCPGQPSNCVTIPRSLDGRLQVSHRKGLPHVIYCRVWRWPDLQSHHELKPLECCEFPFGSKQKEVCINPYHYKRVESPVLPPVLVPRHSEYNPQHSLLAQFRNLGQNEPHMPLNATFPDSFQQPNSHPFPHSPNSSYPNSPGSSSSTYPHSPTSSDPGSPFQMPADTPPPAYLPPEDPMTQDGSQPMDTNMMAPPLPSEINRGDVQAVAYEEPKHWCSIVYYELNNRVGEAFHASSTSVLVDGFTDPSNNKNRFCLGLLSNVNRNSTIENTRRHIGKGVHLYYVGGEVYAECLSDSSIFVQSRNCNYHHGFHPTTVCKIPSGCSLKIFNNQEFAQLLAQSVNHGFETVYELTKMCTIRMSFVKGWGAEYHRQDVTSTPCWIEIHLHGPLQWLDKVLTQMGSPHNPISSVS
UniProt Q9UJU2: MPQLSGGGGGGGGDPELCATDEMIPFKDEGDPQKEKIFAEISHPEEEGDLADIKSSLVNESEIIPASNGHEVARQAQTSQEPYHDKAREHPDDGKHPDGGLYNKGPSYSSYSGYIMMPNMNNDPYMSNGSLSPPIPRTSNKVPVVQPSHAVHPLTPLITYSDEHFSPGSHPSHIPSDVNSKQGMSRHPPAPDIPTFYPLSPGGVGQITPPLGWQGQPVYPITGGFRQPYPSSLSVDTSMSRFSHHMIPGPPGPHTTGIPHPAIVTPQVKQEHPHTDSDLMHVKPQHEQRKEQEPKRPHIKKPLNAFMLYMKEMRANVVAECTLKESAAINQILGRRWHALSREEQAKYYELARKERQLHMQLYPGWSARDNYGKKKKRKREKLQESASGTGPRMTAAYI
UniProt Q13485: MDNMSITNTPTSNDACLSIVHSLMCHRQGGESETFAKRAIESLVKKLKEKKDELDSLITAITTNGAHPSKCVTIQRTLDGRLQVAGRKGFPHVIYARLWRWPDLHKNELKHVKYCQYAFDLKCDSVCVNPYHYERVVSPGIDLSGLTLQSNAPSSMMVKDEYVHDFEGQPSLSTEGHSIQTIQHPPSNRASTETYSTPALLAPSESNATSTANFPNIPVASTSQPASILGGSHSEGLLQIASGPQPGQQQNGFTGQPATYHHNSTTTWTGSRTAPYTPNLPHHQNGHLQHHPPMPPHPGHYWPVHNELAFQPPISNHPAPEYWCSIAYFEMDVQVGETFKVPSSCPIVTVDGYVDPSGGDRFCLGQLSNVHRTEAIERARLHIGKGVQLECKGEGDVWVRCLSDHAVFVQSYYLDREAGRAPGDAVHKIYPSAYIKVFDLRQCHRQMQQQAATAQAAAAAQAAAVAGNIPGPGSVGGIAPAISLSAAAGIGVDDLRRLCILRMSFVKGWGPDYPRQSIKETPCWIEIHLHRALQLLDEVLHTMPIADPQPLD

No constants are given. Whether binding was seen depends on the method and setting. Binding seen in cells or lysates may run through a third protein. Some binding calls cover weakened binding; strength is not graded here.

Assay [1] concerns the target phosphorylated Smad1 (human (endogenous in IMR32 and BE(2)-C)) (UniProt Q15797). The assay is described as follows: co-IP; IMR32 and BE(2)-C cells transfected with Smad4, D351H or R361H; western blot for p-Smad1 and p-Smad2.
Assay [2] addresses lymphoid enhancer binding factor 1 (LEF1), endogenous (human (endogenous in NB cell lines)) (UniProt Q9UJU2). The assay is described as follows: co-IP; endogenous proteins of cultured NB cells; antibodies specific for Smad4 and LEF1, protein A-Sepharose beads, western blot.

For the substance Smad4 D351H (from UniProt Q13485 1-552), in assay [1], the binding result is “no binding”. Turning to Smad4 R361H (from UniProt Q13485 1-552), in assay [1], the binding entry is “no binding”.

Consider “Smad4, transfected (from UniProt Q13485 1-552)”, for which the binding entry in assay [1] was “binds”.

As for “SMAD family member 4 (Smad4), endogenous (from UniProt Q13485 1-552)”, the binding entry in assay [2] is listed as “binds”.
